Source: paper PMC10668032
Some of the results follow. At the low end of the ranking the order means little.

The sequences below were run against SIX1-Q177R homeodomain (UniProt Q15475) (assay: universal protein binding microarray). Details: Universal all-10-mer PBM (8x60K, AMADID 030236), 300 nM GST-tagged protein, Alexa Fluor 488 anti-GST; buffer, salt, pH and temperature not stated; high values mean tight binding; most listed sequences are background and not binding sites; double strand, one strand shown.
AGAACCGA was tested, and the binding signal was -0.15 E-score.
Work on ACCGGCAG yielded a binding signal of 0.131 E-score.
GAGGGTAC was tested, and the binding signal was 0.183 E-score.
Sequence TCTATAGA has a binding signal of 0.00643 E-score.
For GGGTTCGA, the binding signal was 0.116 E-score.
Work on AGCGCGGC yielded a binding signal of -0.124 E-score.
ATCTAGCC gave a binding signal of -0.0661 E-score.
ACCGTGTA showed a binding signal of 0.438 E-score.
With ACAGGCAG the binding signal was -0.0434 E-score.
With CCGGGCAG the binding signal was 0.072 E-score.
ACTTGGCT was tested, and the binding signal was -0.0747 E-score.
TAATACGA showed a binding signal of 0.0808 E-score.
CGGGGTAC was tested, and the binding signal was 0.224 E-score.
For GGACGTCA, the binding signal was -0.183 E-score.
In the case of CCCTGTAA, the binding signal is reported as 0.0288 E-score.
With GTTATGAA the binding signal was 0.0689 E-score.
In the case of GACGTATC, the binding signal is reported as -0.0235 E-score.
CACTACGG showed a binding signal of 0.188 E-score.
CAAGCACG was tested, and the binding signal was -0.0496 E-score.
AGTAATAG was tested, and the binding signal was -0.12 E-score.
In the case of CATATTGC, the binding signal is reported as -0.207 E-score.
Work on CGCAGGTC yielded a binding signal of -0.272 E-score.
CCCCCAAC showed a binding signal of 0.17 E-score.
In the case of AGAGAATG, the binding signal is reported as -0.252 E-score.
With ATCAGATG the binding signal was -0.0562 E-score.
With AACTTCAA the binding signal was -0.0573 E-score.
In the case of CCGCTTTC, the binding signal is reported as -0.107 E-score.
Sequence CTGAATGA has a binding signal of -0.123 E-score.
Sequence CGTCACCC has a binding signal of -0.0338 E-score.
With ATACAGAC the binding signal was -0.0141 E-score.
Work on ATGGCTAA yielded a binding signal of -0.0563 E-score.
CGCTTACC showed a binding signal of -0.0323 E-score.
In the case of AACGTTGT, the binding signal is reported as -0.222 E-score.
AAGTCCAC gave a binding signal of -0.223 E-score.
Work on AAGAGCAG yielded a binding signal of -0.202 E-score.
With ACGCAGGC the binding signal was -0.127 E-score.
ACCAGACG was tested, and the binding signal was -0.0377 E-score.
GCGGAGAA showed a binding signal of -0.134 E-score.
With CTGAATAC the binding signal was -0.107 E-score.
In the case of CGCTACGC, the binding signal is reported as -0.0806 E-score.
AGCTTATA was tested, and the binding signal was -0.237 E-score.
With AGCAAAAG the binding signal was -0.346 E-score.
Work on CCGCGCCG yielded a binding signal of 0.0327 E-score.
ACTCCTTG showed a binding signal of 0.141 E-score.
CAAGAAAC was tested, and the binding signal was -0.108 E-score.
ACAGATGG showed a binding signal of -0.163 E-score.
With ACCGGAGG the binding signal was 0.183 E-score.
With CCGTCAGA the binding signal was -0.0859 E-score.
ACGCAGCA was tested, and the binding signal was -0.104 E-score.
In the case of AAACGAGT, the binding signal is reported as 0.0876 E-score.
Sequence TAGCAATA has a binding signal of -0.127 E-score.
With ACCATTCG the binding signal was 0.0723 E-score.
Sequence CCCCCTCG has a binding signal of 0.13 E-score.
In the case of CCGGGGTA, the binding signal is reported as 0.284 E-score.
Sequence AATAAGGC has a binding signal of -0.176 E-score.
With GAAAGTGA the binding signal was 0.0537 E-score.
Sequence CCTAGCCG has a binding signal of -0.227 E-score.
Work on CGTGCGTC yielded a binding signal of 0.0875 E-score.
Work on AAACGCGA yielded a binding signal of -0.0925 E-score.
In the case of AATGGCTG, the binding signal is reported as -0.16 E-score.
For GTTTGTCA, the binding signal was -0.0318 E-score.
With CGCAGGAA the binding signal was -0.0176 E-score.
GGGCCCAA gave a binding signal of -0.228 E-score.
With AACCCAGT the binding signal was 0.128 E-score.
Sequence AATGTTGA has a binding signal of -0.0639 E-score.
With GACAGGTA the binding signal was -0.0714 E-score.
AGACGCGC gave a binding signal of -0.083 E-score.
GATGTCGA showed a binding signal of 0.0722 E-score.
With CAGCCAAG the binding signal was -0.0627 E-score.
For CGTCCTTC, the binding signal was -0.189 E-score.
CTTTATTC was tested, and the binding signal was -0.148 E-score.
GGCCCACA gave a binding signal of -0.0956 E-score.
Work on ACCACTTA yielded a binding signal of 0.0302 E-score.
Work on AATGCTTA yielded a binding signal of -0.149 E-score.
In the case of ATATGGGG, the binding signal is reported as 0.0724 E-score.
In the case of CGCTCTAG, the binding signal is reported as -0.0165 E-score.
CACTACGC was tested, and the binding signal was 0.166 E-score.
Work on AAACTCCG yielded a binding signal of -0.117 E-score.
Sequence ATACACTC has a binding signal of 0.369 E-score.
For CCAACGGC, the binding signal was -0.184 E-score.
CACCCCCG was tested, and the binding signal was 0.325 E-score.
GCGCAATA showed a binding signal of 0.122 E-score.
Work on CACCAAGA yielded a binding signal of 0.341 E-score.
CCTACTAA gave a binding signal of -0.0637 E-score.
AACCCTGG gave a binding signal of 0.0197 E-score.
With GCTTAAAC the binding signal was -0.21 E-score.
AGCTCCAC gave a binding signal of -0.151 E-score.
Sequence CCTGGGTA has a binding signal of 0.164 E-score.
For AGCTTCTC, the binding signal was -0.289 E-score.
For CAACCGGC, the binding signal was -0.0605 E-score.
ACCAGTAA showed a binding signal of 0.179 E-score.
TGTCTCAA gave a binding signal of 0.086 E-score.
For ATACCTGC, the binding signal was 0.15 E-score.
Work on GGCACCCC yielded a binding signal of 0.158 E-score.
Work on GGTCACCA yielded a binding signal of -0.0527 E-score.
AACAAGCT gave a binding signal of -0.221 E-score.
In the case of ATGTCCAC, the binding signal is reported as -0.145 E-score.
For TAAGAACA, the binding signal was 0.0896 E-score.
CCACAAGG showed a binding signal of -0.0167 E-score.
Work on AAGGGCGC yielded a binding signal of -0.213 E-score.
Sequence ACGAGGTG has a binding signal of 0.251 E-score.
Sequence TAGGTCAA has a binding signal of -0.0796 E-score.
For CTTCAGAC, the binding signal was -0.0523 E-score.
GGATTAAA gave a binding signal of -0.103 E-score.
TCCTGCGA showed a binding signal of -0.12 E-score.
Sequence ACTACGTC has a binding signal of 0.000585 E-score.
ATTAAAGG showed a binding signal of -0.126 E-score.
Sequence ATCGCCGA has a binding signal of -0.231 E-score.
AGGGTTCG was tested, and the binding signal was 0.0298 E-score.
In the case of CTGTCAAG, the binding signal is reported as -0.203 E-score.
